# The supplement of paper PMC3334620
# The full ranking holds about 33,000 sequences; the median of “E-score (-0.5 to 0.5)” is about -0.056, and the highest 2% start at about 0.38. This is one part of the list.
# Target: Stb4 (UniProt P50104)
# Assay: PBM E-score (8-mer binding enrichment) (E-score (-0.5 to 0.5)); higher = stronger / more preferred TF binding; most listed sequences are background and not binding sites
# Details: protein concentration: 200 nM; construct: GST-DNA-binding domain
# Procedure, shortened: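 Bound GST-tagged yeast transcription factors, applied at about 100-200 nM to double-stranded universal all-10-mer Agilent arrays, were detected with fluorescent anti-GST. Scans were normalised with masliner. A modified Wilcoxon-Mann-Whitney statistic, the E-score, was assigned to each ungapped eight-base word pooled with its reverse complement by the Universal PBM Analysis Suite.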
row,Sequence,PBM E-score
1,GATAGCGC,0.0623
2,ACTACTCG,0.148
3,AGAACCAT,-0.159
4,GATCTGCA,0.0238
5,TAATTTAA,0.148
6,CATAGTCC,-0.139
7,TCTTCTAA,-0.123
8,ACGCAAGC,-0.129
9,ATGATCAC,-0.0197
10,ACGCCGCT,-0.0109
11,CACCGTGA,-0.0349
12,AAACCTAC,0.042
13,ACCCGCAG,0.246
14,AACATATT,-0.0423
15,GGTCATTA,-0.0634
16,AAGCCGCC,-0.0244
17,AGAGTACC,-0.0325
18,ACTAAGGG,-0.159
19,AATACCTC,-0.03
20,CTTCTCTA,-0.123
21,AGCAGTTA,-0.175
22,ATTTAGGG,0.0757
23,AGGATACT,-0.145
24,ACGCATTA,-0.0608
25,ACCAGCAT,-0.183

row,Sequence,PBM E-score
1,AGAATAGA,-0.127
2,ACGGAAGT,0.362
3,CGGATGTC,0.426
4,CCGTCACC,0.155
5,ACATCAGG,-0.177
6,AACGTTCT,-0.0762
7,ATGCCATA,-0.315
8,AGAGGGCT,-0.287
9,CACTATCC,0.219
10,CCGATGGC,0.345
11,AAAAAAGC,-0.178
12,GATCGGCA,0.349
13,CAATTCTG,-0.147
14,TGCTAAAA,-0.205
15,CGCGACCC,0.00864
16,TCGACAGA,-0.169
17,AATGGTCA,-0.124
18,GCTGAATA,-0.243
19,ATTGTTTG,-0.152
20,TCAGTTCA,-0.146
21,AAGGTAAC,-0.102
22,ACTTGCAA,-0.0701
23,ATGGGCAA,-0.022
24,TGGGCACA,-0.164
25,GTGTGAAC,0.0138

row,Sequence,PBM E-score
1,AACCCTGT,-0.091
2,GATTGCTA,-0.122
3,AGCCCTTG,-0.148
4,TAGATCGA,-0.227
5,GGGAGAAC,0.0243
6,CATTTGCG,0.0241
7,AATACTCT,-0.0803
8,ATCCCTCA,-0.102
9,CTAGCCAA,-0.0164
10,AGTGCGAA,-0.0951
11,CGTACCCA,-0.0712
12,AGAATCTC,0.00656
13,TACGTTAA,-0.173
14,ATTACGGC,0.0709
15,GTTGGAAA,0.0285
16,GCTCATTA,0.0211
17,ATAATTTA,0.155
18,ACGTCCAG,-0.0996
19,AGAAGACT,-0.237
20,ACTGCAGG,-0.286
21,GGGTTCCA,-0.0875
22,GTGCTATA,-0.139
23,CTTCAAGC,-0.303
24,GAGCCCTC,-0.163
25,CAGAGTTA,-0.0469

row,Sequence,PBM E-score
1,ACGATTGA,-0.0991
2,CCACCCGA,0.379
3,CGACCGTA,0.0196
4,CCGGCCCG,0.392
5,GGTATACA,0.0214
6,ATAGGAAC,-0.12
7,ATACCTTG,-0.0599
8,AAACAGAG,-0.0864
9,AGGCATAT,-0.193
10,CGACCTTA,-0.00111
11,AAGTTCTA,0.0321
12,AATAGGTA,-0.152
13,TTATTGAA,-0.272
14,CGGTGGCA,-0.0748
15,AAAACCAT,-0.16
16,AGATGTGC,-0.0387
17,AGCACCAG,-0.269
18,TAACGAGA,-0.139
19,GCACCACA,-0.0162
20,CCGCCTCC,0.133
21,CCCATGGA,-0.247
22,CATTGAAA,-0.0319
23,AGCTGTAC,-0.0586
24,ATTCATGG,-0.228
25,GCCGCTAA,0.0904

row,Sequence,PBM E-score
1,CGCCAAGA,-0.172
2,ATACATGA,-0.212
3,CAATTCTA,-0.196
4,ACCTGCAA,-0.281
5,ACCTAGGA,-0.0137
6,GCCGGCAA,0.32
7,CTATTGTA,-0.0755
8,AAAGGGAG,-0.189
9,CGCTTGTA,0.134
10,GAGTCACC,-0.192
11,AACTTACT,-0.168
12,GGAATGCC,0.174
13,ACGCCAGG,-0.0466
14,CAGCTAAC,-0.244
15,CCGATGTC,0.254
16,TCATCTCA,-0.067
17,ATATCTTA,-0.103
18,ACACTGGG,-0.184
19,CGAGGGCA,0.0943
20,GCACACGA,-0.128
21,ATCGCTAA,-0.143
22,CACCTGTA,-0.173
23,GGAGGCAC,0.0561
24,ACTTACCG,0.366
25,ATACAAAG,0.037

row,Sequence,PBM E-score
1,ACACAACG,-0.0126
2,ATCGGTGC,0.0289
3,AATCATTC,-0.0237
4,AACTCGCC,0.00739
5,ACTAGACC,-0.124
6,GTGGGTCA,-0.244
7,AAGGCATA,-0.121
8,AAGGCAGT,-0.173
9,AAGCCGTA,0.0243
10,AGACCGAA,0.244
11,GAATAGAA,0.0248
12,CTGCTAAG,-0.138
13,GATATCGC,-0.0806
14,ACGCATGG,-0.0652
15,ACGTACGG,0.173
16,CCTCAGGA,-0.168
17,CCTTCTGA,-0.219
18,ATCTAGAA,-0.117
19,ACTCTTTC,-0.0797
20,GCTCGCAA,-0.146
21,AAAACCCA,-0.0723
22,ACTGGGTG,-0.115
23,ACTCGATG,-0.18
24,CGCAGGGA,-0.216
25,CAGGCCTG,-0.118

row,Sequence,PBM E-score
1,ATAAGCCC,-0.0887
2,GGATACGA,0.0249
3,ATATACGG,0.125
4,CCCCAAAA,-0.108
5,CTTCGTAA,-0.178
6,CCTAATAA,-0.202
7,CATCTAGG,-0.212
8,ATGATAAA,0.00365
9,CTGCATTC,0.00558
10,AAGTCGTC,0.0514
11,CAACACAC,-0.189
12,GACAGAGC,-0.122
13,AGGGAAAA,-0.164
14,AAAAAGGG,0.0961
15,AGAGGGTC,-0.234
16,AACTGGGA,-0.14
17,GCTACCCA,-0.0281
18,AGTGTAGA,-0.338
19,TACCCCTA,-0.137
20,CGCAAGCG,-0.124
21,GGTCGGAC,0.144
22,AGCCGTTC,0.0794
